Measurements as given in publication PMC8673838, “MCPH1 inhibits Condensin II during interphase by regulating its SMC2-Kleisin interface” (eLife, 2021).
These are yes or no findings as the source states them, for the method shown. For some assays here: Binding seen in cells or lysates may run through a third protein. Some entries that bind do so weakly or less than the wild type. For some assays here: Where a sequence is shown, tags or fusion partners need not be part of it. Values belong to the molecule of their own block, whether it stands above or below them.

Amino acid sequences for entries named in this document (tags omitted). A change or cut given only in a name is not applied to a line headed by its entry.
UniProt O95347: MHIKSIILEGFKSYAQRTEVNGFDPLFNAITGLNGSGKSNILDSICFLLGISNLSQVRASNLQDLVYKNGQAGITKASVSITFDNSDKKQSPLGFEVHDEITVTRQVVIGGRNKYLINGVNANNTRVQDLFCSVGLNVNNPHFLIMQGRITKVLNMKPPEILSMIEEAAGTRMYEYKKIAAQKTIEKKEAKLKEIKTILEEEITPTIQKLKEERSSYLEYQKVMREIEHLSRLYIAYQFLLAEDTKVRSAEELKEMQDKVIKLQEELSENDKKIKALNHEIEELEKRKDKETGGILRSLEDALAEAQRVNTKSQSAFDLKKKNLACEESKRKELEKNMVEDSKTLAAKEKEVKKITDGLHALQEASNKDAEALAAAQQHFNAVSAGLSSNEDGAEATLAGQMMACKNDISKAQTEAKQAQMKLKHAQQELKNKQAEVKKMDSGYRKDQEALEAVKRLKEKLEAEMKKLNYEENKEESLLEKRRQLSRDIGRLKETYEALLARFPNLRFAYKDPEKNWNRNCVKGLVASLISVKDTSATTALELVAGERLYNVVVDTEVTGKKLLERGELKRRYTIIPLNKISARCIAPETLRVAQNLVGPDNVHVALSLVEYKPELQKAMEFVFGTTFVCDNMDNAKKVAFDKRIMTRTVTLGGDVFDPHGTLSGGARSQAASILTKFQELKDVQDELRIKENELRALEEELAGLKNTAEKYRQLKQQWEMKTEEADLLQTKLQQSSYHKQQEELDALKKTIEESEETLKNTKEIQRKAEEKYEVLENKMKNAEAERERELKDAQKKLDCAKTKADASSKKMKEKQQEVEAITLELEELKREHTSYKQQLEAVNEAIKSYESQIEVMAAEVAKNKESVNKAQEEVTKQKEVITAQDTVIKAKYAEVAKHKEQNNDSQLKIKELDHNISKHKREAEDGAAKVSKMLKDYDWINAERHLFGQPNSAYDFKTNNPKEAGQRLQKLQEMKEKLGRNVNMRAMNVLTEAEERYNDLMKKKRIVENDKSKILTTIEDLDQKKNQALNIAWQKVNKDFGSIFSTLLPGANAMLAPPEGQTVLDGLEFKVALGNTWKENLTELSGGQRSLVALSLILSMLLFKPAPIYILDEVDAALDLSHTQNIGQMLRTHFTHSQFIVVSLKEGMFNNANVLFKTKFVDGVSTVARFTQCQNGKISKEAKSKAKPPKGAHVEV
UniProt Q9NTJ3: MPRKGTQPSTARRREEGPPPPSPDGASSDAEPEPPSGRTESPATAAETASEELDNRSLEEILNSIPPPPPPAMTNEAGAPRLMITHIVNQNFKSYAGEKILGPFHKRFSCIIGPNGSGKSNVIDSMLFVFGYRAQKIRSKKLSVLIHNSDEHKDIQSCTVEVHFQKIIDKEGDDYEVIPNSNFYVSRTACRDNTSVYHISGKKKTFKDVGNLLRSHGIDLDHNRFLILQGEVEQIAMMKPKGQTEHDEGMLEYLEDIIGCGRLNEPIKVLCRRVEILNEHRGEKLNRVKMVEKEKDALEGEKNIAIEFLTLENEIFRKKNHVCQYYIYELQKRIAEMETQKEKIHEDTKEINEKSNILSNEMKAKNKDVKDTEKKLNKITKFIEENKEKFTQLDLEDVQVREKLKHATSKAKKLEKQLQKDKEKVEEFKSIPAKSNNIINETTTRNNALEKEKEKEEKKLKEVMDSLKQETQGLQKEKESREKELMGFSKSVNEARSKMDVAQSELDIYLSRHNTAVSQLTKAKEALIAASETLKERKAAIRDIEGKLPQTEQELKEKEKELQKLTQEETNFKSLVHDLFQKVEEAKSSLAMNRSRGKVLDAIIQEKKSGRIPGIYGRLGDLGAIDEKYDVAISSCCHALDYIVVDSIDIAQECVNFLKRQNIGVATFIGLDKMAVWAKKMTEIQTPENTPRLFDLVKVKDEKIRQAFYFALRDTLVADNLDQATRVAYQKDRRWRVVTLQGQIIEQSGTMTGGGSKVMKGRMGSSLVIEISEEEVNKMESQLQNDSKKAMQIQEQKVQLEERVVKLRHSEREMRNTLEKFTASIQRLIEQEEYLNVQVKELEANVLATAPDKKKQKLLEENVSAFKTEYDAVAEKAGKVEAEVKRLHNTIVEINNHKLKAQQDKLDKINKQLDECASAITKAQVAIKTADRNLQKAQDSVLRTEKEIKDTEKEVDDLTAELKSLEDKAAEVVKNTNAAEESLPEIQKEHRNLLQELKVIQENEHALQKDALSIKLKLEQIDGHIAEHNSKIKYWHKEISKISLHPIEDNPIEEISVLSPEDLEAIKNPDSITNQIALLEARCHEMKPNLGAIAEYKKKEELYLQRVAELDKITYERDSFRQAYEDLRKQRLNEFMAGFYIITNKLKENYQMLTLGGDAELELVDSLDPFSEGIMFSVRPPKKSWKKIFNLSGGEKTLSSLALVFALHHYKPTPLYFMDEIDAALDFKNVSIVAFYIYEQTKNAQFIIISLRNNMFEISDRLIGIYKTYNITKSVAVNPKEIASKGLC
UniProt Q6IBW4: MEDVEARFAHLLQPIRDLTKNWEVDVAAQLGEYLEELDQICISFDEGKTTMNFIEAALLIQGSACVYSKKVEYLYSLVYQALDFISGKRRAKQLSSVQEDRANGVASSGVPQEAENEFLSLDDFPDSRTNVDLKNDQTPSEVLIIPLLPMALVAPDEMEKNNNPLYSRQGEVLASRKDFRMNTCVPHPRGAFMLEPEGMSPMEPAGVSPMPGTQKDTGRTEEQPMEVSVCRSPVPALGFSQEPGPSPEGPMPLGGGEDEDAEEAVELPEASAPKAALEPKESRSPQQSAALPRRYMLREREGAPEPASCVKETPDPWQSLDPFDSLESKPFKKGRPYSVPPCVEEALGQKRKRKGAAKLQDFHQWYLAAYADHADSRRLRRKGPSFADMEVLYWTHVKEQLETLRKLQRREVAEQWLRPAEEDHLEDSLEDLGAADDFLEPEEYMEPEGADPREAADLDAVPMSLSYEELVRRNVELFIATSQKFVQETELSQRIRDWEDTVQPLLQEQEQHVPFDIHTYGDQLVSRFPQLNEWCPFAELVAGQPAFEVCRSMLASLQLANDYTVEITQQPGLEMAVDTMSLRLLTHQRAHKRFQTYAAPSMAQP
UniProt P42695: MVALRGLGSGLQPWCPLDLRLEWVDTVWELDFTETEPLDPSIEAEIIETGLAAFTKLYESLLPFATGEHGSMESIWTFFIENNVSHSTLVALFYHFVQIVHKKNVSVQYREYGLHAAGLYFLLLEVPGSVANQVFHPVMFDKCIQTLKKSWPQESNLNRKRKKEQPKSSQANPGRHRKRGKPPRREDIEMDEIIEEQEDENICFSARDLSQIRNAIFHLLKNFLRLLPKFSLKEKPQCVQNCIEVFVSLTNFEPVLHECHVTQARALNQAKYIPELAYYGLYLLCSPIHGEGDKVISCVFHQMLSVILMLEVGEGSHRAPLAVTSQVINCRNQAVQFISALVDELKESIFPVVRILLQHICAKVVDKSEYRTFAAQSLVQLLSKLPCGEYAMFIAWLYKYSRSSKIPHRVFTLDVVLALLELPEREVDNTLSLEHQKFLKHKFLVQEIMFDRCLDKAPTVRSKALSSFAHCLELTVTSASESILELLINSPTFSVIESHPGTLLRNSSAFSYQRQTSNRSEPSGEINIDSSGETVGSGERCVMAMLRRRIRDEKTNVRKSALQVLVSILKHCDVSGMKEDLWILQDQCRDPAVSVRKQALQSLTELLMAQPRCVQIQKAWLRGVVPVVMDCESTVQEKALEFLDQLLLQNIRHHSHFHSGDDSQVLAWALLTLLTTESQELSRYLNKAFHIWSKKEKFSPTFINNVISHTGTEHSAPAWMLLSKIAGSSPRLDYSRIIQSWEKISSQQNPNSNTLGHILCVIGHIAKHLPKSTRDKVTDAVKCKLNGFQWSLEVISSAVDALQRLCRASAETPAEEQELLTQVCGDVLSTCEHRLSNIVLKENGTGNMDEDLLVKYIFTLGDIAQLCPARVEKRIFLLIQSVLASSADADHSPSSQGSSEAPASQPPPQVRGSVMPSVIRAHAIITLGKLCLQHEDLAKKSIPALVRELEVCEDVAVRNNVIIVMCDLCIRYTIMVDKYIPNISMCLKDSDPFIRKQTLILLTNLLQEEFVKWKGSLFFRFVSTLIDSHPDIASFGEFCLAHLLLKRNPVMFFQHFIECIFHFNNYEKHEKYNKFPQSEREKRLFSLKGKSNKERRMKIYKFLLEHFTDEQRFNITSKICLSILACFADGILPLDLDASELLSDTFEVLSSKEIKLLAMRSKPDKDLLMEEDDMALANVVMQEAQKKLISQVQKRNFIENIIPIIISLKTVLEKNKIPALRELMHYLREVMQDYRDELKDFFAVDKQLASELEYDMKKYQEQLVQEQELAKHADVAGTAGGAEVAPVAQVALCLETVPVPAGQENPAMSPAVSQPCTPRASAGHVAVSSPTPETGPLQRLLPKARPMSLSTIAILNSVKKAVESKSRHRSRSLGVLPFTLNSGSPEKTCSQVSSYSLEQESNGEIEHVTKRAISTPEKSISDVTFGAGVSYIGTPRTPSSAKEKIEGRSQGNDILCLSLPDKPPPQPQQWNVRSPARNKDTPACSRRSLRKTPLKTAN
UniProt Q86XI2: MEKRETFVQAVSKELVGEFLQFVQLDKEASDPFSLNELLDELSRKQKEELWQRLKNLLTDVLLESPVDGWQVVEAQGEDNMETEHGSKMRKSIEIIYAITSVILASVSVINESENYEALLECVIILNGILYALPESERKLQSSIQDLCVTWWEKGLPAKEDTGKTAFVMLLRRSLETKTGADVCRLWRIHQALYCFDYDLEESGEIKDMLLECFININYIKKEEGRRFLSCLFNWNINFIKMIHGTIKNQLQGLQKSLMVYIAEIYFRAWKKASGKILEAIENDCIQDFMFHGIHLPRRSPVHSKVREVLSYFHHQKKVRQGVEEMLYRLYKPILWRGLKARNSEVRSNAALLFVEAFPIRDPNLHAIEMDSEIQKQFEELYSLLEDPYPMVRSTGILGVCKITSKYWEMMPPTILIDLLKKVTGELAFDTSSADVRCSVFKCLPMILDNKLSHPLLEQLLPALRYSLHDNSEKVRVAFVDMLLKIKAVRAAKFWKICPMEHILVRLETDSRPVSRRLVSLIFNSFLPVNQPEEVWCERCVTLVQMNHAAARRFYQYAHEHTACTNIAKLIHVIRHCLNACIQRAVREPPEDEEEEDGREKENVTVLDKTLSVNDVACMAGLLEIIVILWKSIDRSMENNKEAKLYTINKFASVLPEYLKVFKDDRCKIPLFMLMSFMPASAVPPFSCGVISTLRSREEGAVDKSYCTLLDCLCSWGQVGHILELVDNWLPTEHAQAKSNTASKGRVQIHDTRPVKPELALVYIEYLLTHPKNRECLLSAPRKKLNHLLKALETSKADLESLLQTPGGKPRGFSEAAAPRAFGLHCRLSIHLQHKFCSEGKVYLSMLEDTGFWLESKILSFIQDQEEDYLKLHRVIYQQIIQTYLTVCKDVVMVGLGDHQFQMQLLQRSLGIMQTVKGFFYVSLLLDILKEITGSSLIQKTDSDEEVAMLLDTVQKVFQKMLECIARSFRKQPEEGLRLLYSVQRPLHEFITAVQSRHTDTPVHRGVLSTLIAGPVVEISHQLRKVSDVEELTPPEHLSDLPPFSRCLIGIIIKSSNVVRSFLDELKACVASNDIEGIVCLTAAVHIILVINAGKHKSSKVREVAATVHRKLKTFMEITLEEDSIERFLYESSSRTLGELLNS

Tests used:
[1] = target: T1, 5-FAM-labelled MCPH1_(407-424) peptide (human); assay: condition: 5 µM (highest concentration of the complex); fluorescence polarisation; direct binding; 0.3 µM 5-FAM peptide, 0.625-5 µM condensin II complex; 20 mM Tris pH 7.5, 200 mM NaCl, 1 mM DTT; room temperature; both purified
T1 sequence (peptide, 5-FAM on the N-terminus): CGESSYDDYFSPDNLKER

[2] = target: human condensin II pentameric complex (SMC2, SMC4, NCAPH2, NCAPD3, NCAPG2) (human) (UniProt O95347+Q9NTJ3+Q6IBW4+P42695+Q86XI2); assay: condition: at least a 10-fold molecular excess over 0.1 µM condensin complex; pull-down; strep-tagged condensin complexes (0.1 µM) with at least a 10-fold molecular excess of MBP MCPH1 constructs or MBP, Strep-tactin sepharose, 20 mM Tris pH 7.5, 150 mM NaCl, 10 % glycerol, 1 mM DTT; five washes; Coomassie or silver stain; both purified
[3] = target: T2, mouse NCAPH2-GFP (mouse (endogenous in E14)) (UniProt Q8BSP2); assay: co-IP; nuclear extracts of E14 mouse ES cells, 1 mg protein, GFP-Trap agarose overnight at 4 °C, 20 mM Tris pH 7.5, 200 mM NaCl, 1 % Triton X-100, 0.1 % deoxycholate, nuclease; western blot or in-gel Halo-TMR
T2 sequence: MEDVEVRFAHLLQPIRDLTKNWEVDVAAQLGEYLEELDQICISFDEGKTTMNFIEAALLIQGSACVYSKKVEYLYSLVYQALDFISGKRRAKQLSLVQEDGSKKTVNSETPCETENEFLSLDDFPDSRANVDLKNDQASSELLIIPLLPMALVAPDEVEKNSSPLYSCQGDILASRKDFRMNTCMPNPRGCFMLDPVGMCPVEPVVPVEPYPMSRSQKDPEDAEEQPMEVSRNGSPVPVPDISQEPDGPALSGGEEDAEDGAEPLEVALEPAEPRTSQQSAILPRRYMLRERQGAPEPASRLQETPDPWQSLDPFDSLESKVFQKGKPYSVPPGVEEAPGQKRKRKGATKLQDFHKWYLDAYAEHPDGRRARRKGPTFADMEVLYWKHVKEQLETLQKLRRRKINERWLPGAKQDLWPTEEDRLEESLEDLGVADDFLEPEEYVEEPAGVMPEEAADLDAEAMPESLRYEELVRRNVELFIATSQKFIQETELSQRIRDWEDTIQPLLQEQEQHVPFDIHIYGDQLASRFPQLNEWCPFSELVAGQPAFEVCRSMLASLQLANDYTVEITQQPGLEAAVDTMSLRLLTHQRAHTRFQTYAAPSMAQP

[4] = target: T3, mouse MCPH1-GFP (mouse (endogenous in E14)) (UniProt Q7TT79); assay: as above
T3 sequence: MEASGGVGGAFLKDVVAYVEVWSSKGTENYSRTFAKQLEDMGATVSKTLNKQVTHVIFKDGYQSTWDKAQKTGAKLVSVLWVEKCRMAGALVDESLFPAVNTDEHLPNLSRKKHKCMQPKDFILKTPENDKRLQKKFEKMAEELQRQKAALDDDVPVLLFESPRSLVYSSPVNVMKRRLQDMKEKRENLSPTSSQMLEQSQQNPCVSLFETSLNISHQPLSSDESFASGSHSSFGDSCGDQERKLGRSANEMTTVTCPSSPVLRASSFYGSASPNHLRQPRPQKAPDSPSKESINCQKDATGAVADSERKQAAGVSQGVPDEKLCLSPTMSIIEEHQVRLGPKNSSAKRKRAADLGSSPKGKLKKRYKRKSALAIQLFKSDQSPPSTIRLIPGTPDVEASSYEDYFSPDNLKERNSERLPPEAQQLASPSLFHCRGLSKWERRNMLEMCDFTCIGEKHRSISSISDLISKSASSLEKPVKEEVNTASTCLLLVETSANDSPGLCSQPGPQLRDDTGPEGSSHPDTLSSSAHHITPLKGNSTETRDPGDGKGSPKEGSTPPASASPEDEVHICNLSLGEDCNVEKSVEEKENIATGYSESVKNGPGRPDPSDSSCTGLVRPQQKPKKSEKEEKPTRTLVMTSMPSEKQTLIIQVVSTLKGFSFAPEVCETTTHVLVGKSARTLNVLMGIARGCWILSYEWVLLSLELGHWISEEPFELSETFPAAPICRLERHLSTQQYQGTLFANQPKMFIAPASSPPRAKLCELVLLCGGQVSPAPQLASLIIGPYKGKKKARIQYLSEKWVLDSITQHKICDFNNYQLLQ

[5] = target: T4, mouse MCPH1-GFP lacking the central domain motif (residues 400-414) (mouse (endogenous in E14)) (UniProt Q7TT79); assay: as above
T4 sequence: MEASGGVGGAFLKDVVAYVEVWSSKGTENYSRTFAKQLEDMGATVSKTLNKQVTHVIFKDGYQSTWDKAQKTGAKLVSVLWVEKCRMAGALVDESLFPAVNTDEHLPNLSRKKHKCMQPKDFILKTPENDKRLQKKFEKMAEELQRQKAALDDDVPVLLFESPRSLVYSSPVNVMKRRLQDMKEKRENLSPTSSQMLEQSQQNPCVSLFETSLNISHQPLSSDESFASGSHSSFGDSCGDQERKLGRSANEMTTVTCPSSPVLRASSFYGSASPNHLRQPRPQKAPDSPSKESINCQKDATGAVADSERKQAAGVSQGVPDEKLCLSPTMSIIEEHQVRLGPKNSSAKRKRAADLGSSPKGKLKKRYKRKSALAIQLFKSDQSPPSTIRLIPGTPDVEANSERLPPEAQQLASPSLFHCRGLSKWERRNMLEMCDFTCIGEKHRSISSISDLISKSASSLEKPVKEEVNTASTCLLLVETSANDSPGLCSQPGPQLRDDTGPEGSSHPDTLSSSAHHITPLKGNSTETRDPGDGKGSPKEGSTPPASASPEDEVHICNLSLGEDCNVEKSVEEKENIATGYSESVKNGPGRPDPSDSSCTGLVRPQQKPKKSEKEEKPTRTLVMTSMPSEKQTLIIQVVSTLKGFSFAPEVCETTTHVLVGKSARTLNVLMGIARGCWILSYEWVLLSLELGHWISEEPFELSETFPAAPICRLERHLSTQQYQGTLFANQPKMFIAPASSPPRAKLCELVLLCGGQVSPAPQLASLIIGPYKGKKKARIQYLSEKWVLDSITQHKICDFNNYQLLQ

B2: mouse MCPH1, endogenous, untagged (protein, UniProt Q7TT79 1-822)
chain: T3 sequence
binding [3]: binds

B3: mouse NCAPH2-Halo (protein, UniProt Q8BSP2 1-607)
chain: T2 sequence
modifications: Halo-TMR ligand on the Halo-tag
binding [4]: binds | binding [5]: no binding

Other lines, results leading:

binding [1]: no binding
Molecule: tetrameric condensin II lacking NCAPG2 (from UniProt O95347 1-1197; Q9NTJ3 1-1288; Q6IBW4 1-605; P42695 1-1498) (complex)

binding [2]: no binding
B1: MBP-MCPH1_(1-195) (domain or fragment, UniProt Q8NEM0 1-195)
chain: MAAPILKDVVAYVEVWSSNGTENYSKTFTTQLVDMGAKVSKTFNKQVTHVIFKDGYQSTWDKAQKRGVKLVSVLWVEKCRTAGAHIDESLFPAANMNEHLSSLIKKKRKCMQPKDFNFKTPENDKRFQKKFEKMAKELQRQKTNLDDDVPILLFESNGSLIYTPTIEINSRHHSAMEKRLQEMKEKRENLSPTSS
